Experimental data published in the supplement of paper PMC7826260.
The list shows a part of the results. One pool of 16,384 single-stranded DNAs met each Rep nickase domain in vitro for 1 h at 37 °C with 3 µM enzyme; only the middle of the 90-letter strands is printed. Uncut reads are compared with the no-enzyme pool on a log2 scale; the lower, the more was cut; hits are not called. Counts are relative to all reads; where an enzyme cuts many sequences, the uncut ones exceed 0.

Experiments:
Test in all cases: uncleaved DNA left, log2 of reads against the no-enzyme library (log2 ratio); higher = less cleavage (more negative = more Rep cleavage of the k-mer); sequences stand for … in CTCGTCCG…ACCGGAGA
[1] = system: T1, Rep nickase domain of Muscovy duck circovirus
T1 sequence (Rep 1-111, printed without the tag): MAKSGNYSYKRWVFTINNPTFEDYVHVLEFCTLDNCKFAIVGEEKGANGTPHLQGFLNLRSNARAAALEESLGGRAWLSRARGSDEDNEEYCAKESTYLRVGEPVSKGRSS
Method: (§1)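 A pool of 90-nt single-stranded DNAs with seven random bases just before the constant AC of the nick site (name = the seven bases) was cut by 3 µM recombinant His6-SUMO-tagged Rep nickase domain (300 nM DNA, 50 mM HEPES pH 8.0, 50 mM NaCl, 1 mM MnCl2, 1 h, 37 °C, three replicates). Uncut DNA was amplified and sequenced.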

[2] = system: T2, Rep nickase domain of banana bunchy top virus
T2 sequence (Rep 1-94, printed without the tag): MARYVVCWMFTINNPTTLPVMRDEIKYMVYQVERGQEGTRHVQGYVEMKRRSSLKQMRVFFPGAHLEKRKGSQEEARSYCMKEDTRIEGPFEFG
Method: as §1

[3] = system: T3, Rep nickase domain of cabbage leaf curl virus
T3 sequence (Rep 1-116, printed without the tag): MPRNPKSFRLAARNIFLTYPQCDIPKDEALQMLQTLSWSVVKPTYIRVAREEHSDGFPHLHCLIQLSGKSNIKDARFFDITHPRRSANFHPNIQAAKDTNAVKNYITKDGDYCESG
Method: as §1

[4] = system: T4, Rep nickase domain of chickpea chlorotic dwarf virus
T4 sequence (Rep 1-124, printed without the tag): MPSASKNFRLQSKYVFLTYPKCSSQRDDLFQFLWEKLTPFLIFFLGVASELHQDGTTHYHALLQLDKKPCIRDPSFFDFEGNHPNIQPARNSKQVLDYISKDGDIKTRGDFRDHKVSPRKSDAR
Method: as §1

[5] = system: T5, Rep nickase domain of faba bean necrotic yellows virus
T5 sequence (Rep 1-98, printed without the tag): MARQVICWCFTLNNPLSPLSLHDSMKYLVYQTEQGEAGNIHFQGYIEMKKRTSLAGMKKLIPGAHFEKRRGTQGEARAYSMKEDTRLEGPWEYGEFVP
Method: as §1

[6] = system: T6, Rep nickase domain of maize striate mosaic virus
T6 sequence (Rep 1-117, printed without the tag): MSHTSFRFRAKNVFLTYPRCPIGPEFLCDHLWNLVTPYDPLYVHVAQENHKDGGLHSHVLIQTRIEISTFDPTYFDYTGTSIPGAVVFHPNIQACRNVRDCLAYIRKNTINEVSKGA
Method: as §1

[7] = system: T7, Rep nickase domain of porcine circovirus 2
T7 sequence (Rep 2-116, printed without the tag): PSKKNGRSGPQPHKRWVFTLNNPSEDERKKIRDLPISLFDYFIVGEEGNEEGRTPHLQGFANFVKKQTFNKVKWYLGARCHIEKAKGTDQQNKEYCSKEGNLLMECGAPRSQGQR
Method: as §1

[8] = system: T8, Rep nickase domain of tomato yellow leaf curl virus
T8 sequence (Rep 1-136, printed without the tag): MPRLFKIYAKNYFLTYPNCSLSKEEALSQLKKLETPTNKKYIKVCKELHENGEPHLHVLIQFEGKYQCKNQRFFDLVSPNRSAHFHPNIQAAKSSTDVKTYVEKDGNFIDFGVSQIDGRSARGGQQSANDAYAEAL
Method: as §1

[9] = system: T9, Rep nickase domain of wheat dwarf virus
T9 sequence (Rep 1-137, printed without the tag): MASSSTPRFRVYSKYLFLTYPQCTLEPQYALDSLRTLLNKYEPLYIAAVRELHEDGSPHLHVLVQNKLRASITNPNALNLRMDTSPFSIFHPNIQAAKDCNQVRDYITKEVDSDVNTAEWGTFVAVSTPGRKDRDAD
Method: as §1

| Sequence | uncleaved DNA left (log2) [1] | uncleaved DNA left (log2) [2] | uncleaved DNA left (log2) [3] | uncleaved DNA left (log2) [4] | uncleaved DNA left (log2) [5] | uncleaved DNA left (log2) [6] | uncleaved DNA left (log2) [7] | uncleaved DNA left (log2) [8] | uncleaved DNA left (log2) [9] |
| --- | --- | --- | --- | --- | --- | --- | --- | --- | --- |
| GAGGCTA | -0.0101 | 0.0589 | 0.521 | 1.04 | -0.0771 | 1.77 | -0.00951 | -0.0787 | 0.0407 |
| TCAGACA | 0.0196 | 0.074 | 0.346 | -0.668 | -0.0367 | 0.461 | 0.0894 | -0.0331 | 0.0222 |
| GGTTACT | -1.32 | 0.0149 | 0.481 | 0.53 | 0.00909 | 1.91 | -2.34 | 0.0961 | 0.0524 |
| AGGCATA | 0.0434 | 0.113 | 0.342 | 1.03 | 0.0293 | 1.25 | -0.061 | 0.051 | 0.192 |
| TACCGGG | -0.0523 | -0.0757 | 0.263 | 0.384 | -0.0969 | 0.393 | 0.0982 | -0.0159 | 0.0612 |
| GCCTCGA | 0.152 | -0.0488 | -0.0272 | -0.0142 | 0.0536 | -0.54 | 0.0168 | 0.0243 | -0.0557 |
| TGGCGGA | -0.135 | -0.199 | -0.333 | -0.242 | -0.102 | -0.586 | -0.0277 | -0.204 | -0.245 |
| TACGGCT | 0.0233 | -0.108 | -0.754 | -1.8 | 0.0809 | -0.472 | -0.0397 | -0.0331 | -0.122 |
| TTGTTGG | 0.00935 | -0.169 | -0.223 | -0.179 | -0.0565 | -0.73 | -0.0333 | -0.191 | -0.156 |
| GCTGCAC | 0.00394 | 0.103 | -0.0612 | 0.258 | 0.0628 | -0.149 | 0.079 | 0.0614 | 0.0375 |
| ATGTCGA | -0.0181 | -0.186 | -0.703 | -0.738 | -0.0317 | -0.983 | -0.00899 | -0.156 | -0.192 |
| GACCGCA | -0.0542 | 0.00124 | 0.00287 | -0.146 | -0.0514 | -0.284 | -0.0688 | -0.0975 | -0.0232 |
| TACAATA | 0.0406 | 0.0318 | -0.322 | -2.67 | 0.0593 | -0.576 | -0.059 | -0.033 | 0.00326 |
| TTTTCGA | -0.0553 | -0.0448 | -0.322 | -0.652 | -0.00569 | -1.16 | 0.0187 | -0.0206 | -0.0771 |
| ATGCGAT | 0.0107 | -0.146 | 0.0558 | 0.839 | -0.0244 | 0.734 | 0.207 | -0.0487 | -0.212 |
